B1: CPEB3 Ribozyme (parent)
chain: UAACAGGGGGCCACAGCAGAAGCGUUCACGUCGCAGCCCCUGUCAGAUUCUGGUGAAUCUGCGAAUUCUGCUGUAUAUCUC

Read counts are not given, so values of variants with three or more changes are uncertain.

Variants of B1 are the subject of the series. The series can be described thus: self-cleavage, relative activity (ratio to wild type); higher = more cleavage; in vitro, sequencing. In a few lines: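 Libraries of CPEB3 self-cleaving ribozyme mutants came from rounds of error-prone PCR and carried barcodes, which DNA sequencing matched to variants. In vitro transcription used T7 RNA polymerase at 37°C for 5 hours, with a further 15 min in DNase I before EDTA stopped the reaction; the ribozymes cleaved during both steps. The RNA was reverse transcribed with template switching and sequenced on Illumina. Relative activity is the cleaved/total read fraction of a variant divided by that of the unmutated ribozyme, averaged over three batches with at least 5 reads.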
Take A15G G33A U49C A56U: the self-cleavage is 0.12. With A15G U25C A47U U72C A77G, the self-cleavage came to 0.23. A15G G52C U80C: the self-cleavage amounted to 1.08.

Turning to A15G U25A A64U, the self-cleavage came out at 0.18. Then A15G U25A A28G A57U U58C U67A, with 0.06. Regarding A15G G46A G55A A65G, the self-cleavage came out at 0.08. Regarding A15G U25C A64G U72G, the self-cleavage turned out to be 0.08. Then A15G U25C A47G U60A, with 0.29; and A15G U26C A45C U51C U69A, with 0.11; and A15G U25C A56G A64G, with 0.11. A15G U26C A45U U48C A56G: the self-cleavage was determined as 0.06. In the case of A15G G22U U48C U72A A75U, the self-cleavage was 0.12. Then A15G U26A U41C A47G A75G, with 0.36; and A15G U25A U26C A35U A45U A77G, with 0.14. Then A15G U25C C68G U72C, with 0.2. With A15G U26C A45U U67C G73A, the self-cleavage amounted to 0.34. Then A15G U25C C29G U54C, with 0.29; and A15G U25C G36U A45G, with 0.06. Then A15G G22A G30A U48A U72A, with 0.13. Then A15G G52A A75U U80C, with 1.05. On to A15G U25C A47G, for which the self-cleavage is 0.18. Then A15G U25A A65G, with 0.5; and A15G G53A A56G, with 0.39; and A15G G46C A47G, with 0.12. Consider A15G U25A A28G C39U C71U, for which the self-cleavage was found to be 0.08.

Turning to A15G U26C A35U U54C U78C, the self-cleavage was found to be 0.43.

As to A15G U26A A45U U60C, the self-cleavage came to 0.18.

Turning to A15G U25A U41A U43C U51C U72C, the self-cleavage was 0.35. Then A15G U25C C40G U51A, with 0.06. Then A15G G33U C62U U78C, with 0.05; and A15G G46U A56U, with 0.26.

For the variant A15G G53U U72C, the self-cleavage came out at 1.25.

For A15G U26C A28U A47G U48C U58G U67C, the self-cleavage stood at 0.18.

With A15G U26C C32A A35G A57U U60C, the self-cleavage is 0.11.

A15G G22C U41A U60G: the self-cleavage amounted to 0.27.

In the case of A15G U25C U31A A64G, the self-cleavage was found to be 0.13. Then A15G U26C A28G U41C U67C, with 0.04; and A15G U25C A64G A65G U80A, with 0.4; and A15G G24C U60C U80C, with 0.16. Then A15G U26A U41G A56G, with 0.25; and A15G G46U A64G U74A, with 0.16. In the case of A15G G22A A47U U54G U66A U78A, the self-cleavage came to 0.08.

Take A15G G33U A35G: the self-cleavage amounted to 0.23. Then A15G G24C A75G, with 0.07; and A15G G24U U49A U66C U80C, with 0.12; and A15G U25C A45G U67C, with 0.16. Then A15G U25G G46U U78A, with 0.48; and A15G G63U A65G, with 0.28. Then A15G G19C A28U G52A, with 0.22; and A15G G33U U60C C79U, with 0.14. Consider A15G U25A U31A U43C C50A, for which the self-cleavage worked out at 0.22. Then A15G U25C A35U A64U U66C U78A, with 0.19. Then A15G U26A U41G A47G U54C, with 0.05; and A15G U26A U41C A45U U60A U67A, with 0.1; and A15G G63C U67C, with 0.2. Then A15G G19U U43C U48A, with 0.05; and A15G U26A A64G U78C, with 0.22; and A15G G19A U51A, with 0.33. Take A15G U25C A64U U66C: the self-cleavage is 0.41. Then A15G U26C C71U, with 0.23; and A15G U26C A28G U69A A75G A77G, with 0.05. For the variant A15G U26C A45G A64G U66C U80C, the self-cleavage was determined as 0.1. Then A15G G30U U31G U41G A47G, with 0.08. Take A15G U25C C38U A56G U74A: the self-cleavage is 0.14. Then A15G U26A U48C A64G, with 0.32; and A15G U26C C68A U69C, with 0.13; and A15G G30C A35U A57G U58A U66C U80C, with 0.06. In the case of A15G G19U U31A U58C U67A, the self-cleavage amounted to 0.14. Consider A15G U25C A75G U80C, for which the self-cleavage was 0.17. Then A15G G52U U54A, with 1.13. A15G G53A A56G U60C U67C: the self-cleavage turned out to be 0.21. Then A15G G22C U78C, with 0.21; and A15G U25G C29U U43C U51C A56U, with 0.06; and A15G G19C A28G G30C G36C U51C, with 0.11.

For the variant A15G G30U G46A C62U U69A, the self-cleavage is 0.17.

On to A15G G30A A35G, for which the self-cleavage was found to be 0.25. Then A15G U25C U60C G70A, with 0.07; and A15G G30U U69G, with 0.05; and A15G U26A A45G G55U A57G U72A U74C, with 0.07.

A15G U25C U31C A35C: the self-cleavage was found to be 0. Regarding A15G G33A U69A U76C A77U, the self-cleavage is 0.11.

Take A15G G30U U66C: the self-cleavage was determined as 0.34. Then A15G G30A A57G, with 0.12.
